Assay results reported in PubChem BioAssay AID624296 (National Center for Advancing Translational Sciences (NCATS), 2012).
In all, about 350,000 compounds went through this assay and about 9,900 (2.8%) were called active. Inconclusive means that the source gave no clear call. Such entries were picked first, then a sample of the others. The call rests on the fitted dose curve; in most records, active means well fitted activation curve with a large enough effect; inconclusive means small, poorly fitted or top-dose-only effect; inactive means no such curve, though single readings can be large or run the other way. No potency is given beside an inconclusive call; the fits are too rough.

Test: A quantitative high throughput screen for small molecules that induce DNA re-replication in MCF 10a normal breast cells. Further: nearly all actives have a fitted effect of over 50% in size. On activity, positive = re-replication: % of control where 0% means no effect.
Conditions: MCF 10A DNA re-replication, Hoechst nuclear intensity, 48 h; activity, positive = re-replication: at 46.1 µM (top of the series)
Potency means the concentration at half of the fitted maximal effect; tags describe the fitted curve by direction and shape.

With `CCOC(=O)/C(C#N)=N/Nc1ccc(S(=O)(=O)N2CCc3ccccc32)cc1` as the compound, how does the Potency read?
The Potency was inconclusive [activator, partial curve, poor fit].

For `CC(C)(C)c1ccccc1NC(=O)CN1C(=O)NC2(CCCCCC2)C1=O`, which “activity, positive = re-replication” value is on record?
The value was inactive: -15.8%.

With `CC(NCC(=O)Nc1cc(S(=O)(=O)N2CCCCCC2)ccc1Cl)c1ccccc1` (centres undefined) as the compound, how does the Potency read?
Its Potency is inconclusive [activator, partial curve, poor fit].

For `O=C(Nc1cccc(-c2csc(Nc3ccc(Cl)cc3)n2)c1)c1cc([N+](=O)[O-])cc(C(F)(F)F)c1`, which Potency is on record?
Its Potency is active: 9.2 µM.

With `COc1cc(C2=NOC(C(=O)Nc3cccnc3)C2)cc(OC)c1OC` (centres undefined) as the compound, how does the Potency read?
The Potency was inconclusive [activator, full curve, poor fit].

Which Potency does the source give for `C#CCOCCOCCOCCNc1nc(N2CCN(C(=O)CCCCCCCCCCNC(=O)[C@H]([C@@H](C)CC)n3cc(CCCCN=C(N)N)nn3)CC2)nc(N2CCN(C(=O)CCCCCCCCCCNC(=O)[C@H](CCCCN)n3cc(C)nn3)CC2)n1` here?
The Potency was inconclusive [activator, single point].

For `CCOc1ccc(S(=O)(=O)Nc2nc3ccccc3nc2-n2ccc(=NC(=O)c3cccs3)cc2)cc1`, which Potency is on record?
The Potency was inconclusive [activator, single point].

With `Cn1c(-c2ncc(F)cc2F)cc2onc(-c3c(F)cccc3Cl)c2c1=O` as the compound, how does the Potency read?
The Potency was inconclusive [activator, partial curve, poor fit].

With `N#Cc1nc(Nc2cccc(Cl)c2)c2ncn(C3CCCC3)c2n1` as the compound, how does the Potency read?
The Potency was inconclusive [activator, single point].

Which “activity, positive = re-replication” value does the source give for `CC(C)N(Cc1nc(-c2ccc(Cl)cc2)no1)C(=O)C(c1ccccc1)c1ccccc1` here?
The value was inactive: 13%.

With `CC(NC(=O)c1c(O)c2ccccc2[nH]c1=O)c1ccccc1` (centres undefined) as the compound, how does the Potency read?
Its Potency is inconclusive [activator, single point].

For `CN(C)c1nc(SCc2ccc(Cl)cc2)nc2c1CCCC2`, which “activity, positive = re-replication” value is on record?
The value was inactive: 23.1%.

Which Potency does the source give for `CCOC(=O)c1sc(NC(=O)CSc2nnc(-c3ccco3)n2CC)c(C(=O)OCC)c1C` here?
The Potency was inconclusive [activator, single point].

For `NC(=O)CCN1CCN(CCOC2Cc3cc(Cl)ccc3Sc3ccccc32)CC1` (centres undefined), which Potency is on record?
Its Potency is inconclusive [activator, single point].

With `CC(c1nnc(SCC(=O)N2CCc3ccccc32)n1-c1ccc(Cl)cc1)N(C)C` (centres undefined) as the compound, how does the Potency read?
Its Potency is inconclusive [activator, partial curve, poor fit].

With `CCOc1cc(CNCc2cccnc2)ccc1OCC(=O)NC(C)(C)C` as the compound, how does the “activity, positive = re-replication” value read?
Its value is inactive: -5.68%.

Which “activity, positive = re-replication” value does the source give for `COc1ccc(Nc2nc3nonc3nc2N2CCCCC2)cc1` here?
The value was inactive: 17.4%.

For `O=C(COC(=O)c1ccc([N+](=O)[O-])o1)NCCCc1ccccc1`, which “activity, positive = re-replication” value is on record?
The value was inactive: 19.1%.

Which Potency does the source give for `CC(c1ccon1)N(C)Cc1cn(Cc2ccccc2)nc1-c1ccc2c(c1)OCO2` (centres undefined) here?
Its Potency is inconclusive [activator, single point].

For `C=CCN(C(=O)CCC(=O)O)C1CC(=O)N(c2ccc(OC)cc2)C1=O` (centres undefined), which “activity, positive = re-replication” value is on record?
The value was inactive: 8.87%.

With `COc1ccc(C)cc1NC(=O)C(C)N(c1ccc(C)cc1)S(C)(=O)=O` (centres undefined) as the compound, how does the “activity, positive = re-replication” value read?
Its value is inactive: -14.5%.

With `O=c1[nH]c2ccccc2c(O)c1O` as the compound, how does the “activity, positive = re-replication” value read?
The value was inactive: -1.06%.

With `COc1cc2sc3ccc(-c4ccc5[nH]ccc5c4)cc3c(=O)c2cc1OC` as the compound, how does the “activity, positive = re-replication” value read?
The value was inactive: 16.9%.

Which Potency does the source give for `CCN(C(=O)c1ccco1)c1nc(CC(=O)Nc2ccc(Cl)cc2)cs1` here?
The Potency was active: 11.6 µM.

Which “activity, positive = re-replication” value does the source give for `O=C(O)CN1CCN(CC(=O)O)CCN(CC(=O)O)CCN(CC(=O)O)CC1` here?
Its value is inactive: -4.36%.

With `COc1ccc(/C=C2\OC(=O)c3c(OC)cccc32)cc1OC` as the compound, how does the Potency read?
The Potency was inconclusive [activator, partial curve].

Which Potency does the source give for `Cn1c(-c2c(N)n(CCc3ccccc3)c3nc4ccccc4nc23)nc2ccccc21` here?
The Potency was inconclusive [activator, single point].

Which Potency does the source give for `Fc1ccccc1/C=N/Nc1ccc(Cl)nn1` here?
The Potency was inconclusive [activator, single point].

Which Potency does the source give for `O=C(c1ccc(Cl)cc1)C1CCCN(Cc2ccc(Oc3ncccn3)cc2)C1` (centres undefined) here?
Its Potency is inconclusive [activator, partial curve].

Which Potency does the source give for `CC(C)N(C(=O)[C@H]1C[C@H](CC(=O)NC(C)(C)C)C(=O)N2CCc3c([nH]c4cc(-c5ccco5)ccc34)[C@]12C)C(C)C` here?
The Potency was inconclusive [activator, partial curve, poor fit].

With `COc1ccc(OC)c(S(=O)(=O)N2CCC(C(=O)Nc3ccc(C)c(C)c3)CC2)c1` as the compound, how does the “activity, positive = re-replication” value read?
Its value is inactive: 7.85%.

Which Potency does the source give for `O=C1C=C(c2ccc3ncccc3c2)C[C@@H](c2ccc3c(c2)OCO3)C1` here?
The Potency was inconclusive [activator, partial curve, poor fit].

For `Cc1ccc(OCc2nnc(SCC(=O)Nc3cc(C)on3)n2C)cc1`, which “activity, positive = re-replication” value is on record?
The value was inactive: 0.103%.

With `CC1Cn2c(nnc2-c2ccccc2O)S1` (centres undefined) as the compound, how does the Potency read?
The Potency was inconclusive [activator, partial curve, poor fit].

With `CCOc1ccc2ccccc2c1/C=N/NC(=O)CNC(=O)c1ccccc1O` as the compound, how does the Potency read?
Its Potency is inconclusive [activator, single point].

For `O=C(CCCCCNC(=O)c1ccccc1)N/N=C/c1ccccc1O`, which Potency is on record?
Its Potency is inconclusive [activator, partial curve, poor fit].

Which “activity, positive = re-replication” value does the source give for `COc1cc(NC(=O)c2sc3ncn(CC(=O)N4CCC(C)CC4)c(=O)c3c2C)cc(OC)c1OC` here?
Its value is inactive: 13.5%.

With `COc1ccc(-c2cc3nc(C)cc(-c4ccc(OC)cc4)n3n2)cc1` as the compound, how does the Potency read?
Its Potency is active: 11.6 µM.

With `O=C(COC(=O)c1ccccn1)Nc1ccc(S(=O)(=O)N2CCOCC2)cc1` as the compound, how does the “activity, positive = re-replication” value read?
The value was inactive: 1.07%.

Which Potency does the source give for `CN(CC(=O)Nc1ccc(F)cc1)C(=O)COc1ccccc1Cc1ccccc1` here?
The Potency was inconclusive [activator, partial curve, poor fit].

Which Potency does the source give for `COc1cc(C)nc(N(C)C(C)=O)n1` here?
Its Potency is inconclusive [activator, single point].

With `O=C(Nc1nccs1)c1ccc(COc2c(F)c(F)cc(F)c2F)cc1` as the compound, how does the “activity, positive = re-replication” value read?
The value was inactive: 2.72%.

For `CCCCc1ncc(CN2CCC(n3nccc3NC(=O)c3ccccc3Cl)CC2)[nH]1`, which Potency is on record?
Its Potency is inconclusive [activator, single point].

Which Potency does the source give for `Cc1ccc(C(C)C)c(OCC(=O)NS(=O)(=O)c2ccc(Cl)cc2)c1` here?
The Potency was inconclusive [activator, single point].

With `O=C(O)c1ccccc1NN=Cc1ccccc1` as the compound, how does the Potency read?
The Potency was inconclusive [activator, partial curve, poor fit].

With `COc1ccc(/C=C/C(=O)C23CC4CC(CC(C4)C2)C3)cc1CN1CCOCC1` as the compound, how does the Potency read?
Its Potency is inconclusive [activator, partial curve, poor fit].

With `COc1ccc(C(=O)/C=C/Nc2ccc(S(=O)(=O)Nc3nc(C)cc(C)n3)cc2)cc1OC` as the compound, how does the Potency read?
The Potency was inconclusive [activator, single point].

With `COc1ccc(COC(=O)c2ccc(Cl)c(S(=O)(=O)N3CCOCC3)c2)cc1F` as the compound, how does the Potency read?
The Potency was inconclusive [activator, partial curve, poor fit].

Which “activity, positive = re-replication” value does the source give for `Cc1ccccc1C(=O)Oc1cccc2c(O)cccc12` here?
Its value is inactive: 5.91%.

For `Cn1cc(Cl)c(C(=O)OCC(=O)Nc2cccc(Cl)c2)n1`, which “activity, positive = re-replication” value is on record?
Its value is inactive: 2.96%.

Which “activity, positive = re-replication” value does the source give for `COc1cc(OC)c(OC)cc1/C=C1\Oc2cc(OS(C)(=O)=O)ccc2C1=O` here?
The value was inactive: 2.67%.

Which “activity, positive = re-replication” value does the source give for `CC(=O)N[C@H]1[C@H]([C@H](O)[C@H](O)CO)O[C@](O)(C(=O)O)C[C@@H]1O` here?
The value was inactive: 2.81%.

For `O=c1c2ccccc2nc(SCc2ccccc2)n1Cc1ccco1`, which “activity, positive = re-replication” value is on record?
The value was inactive: 14.7%.

For `CC1CCN(CCCCOc2ccccc2-c2ccccc2)CC1`, which Potency is on record?
Its Potency is inconclusive [activator, partial curve, poor fit].

Which Potency does the source give for `CCOC(=O)c1cnc2c(OC)cccc2c1N1CCN(c2ccccn2)CC1` here?
Its Potency is inconclusive [activator, single point].

For `NCCNc1ccc(C(=O)N2c3ccccc3Sc3ccccc32)cc1[N+](=O)[O-]`, which Potency is on record?
Its Potency is inconclusive [activator, single point].

For `Cc1ccc(CNC(=O)COc2ccc3c(c2)CCC3)cc1`, which “activity, positive = re-replication” value is on record?
The value was inactive: 10.2%.

With `CN(CC1CCOCC1)C(=O)CC1C(=O)NCCN1C/C=C/c1ccccc1` (centres undefined) as the compound, how does the Potency read?
The Potency was inconclusive [activator, single point].

With `O=C(C[n+]1cccc2ccccc21)c1ccccc1` as the compound, how does the Potency read?
Its Potency is inconclusive [activator, partial curve, poor fit].

For `CSC1=NCCN1C(=O)c1c(-c2c(F)cccc2Cl)noc1C`, which Potency is on record?
Its Potency is inconclusive [activator, single point].

With `CC(C)NC(=O)CSc1nnc(-c2ccc(C(C)(C)C)cc2)n1C` as the compound, how does the Potency read?
The Potency was inconclusive [activator, single point].

For `NC(=O)Cn1ccc(O)c(Cc2ccc(Cl)cc2Cl)c1=O`, which “activity, positive = re-replication” value is on record?
Its value is inactive: -0.782%.

With `CCCOc1ccc(N2C(=O)CC(N3CCC(O)(c4cccc(C(F)(F)F)c4)CC3)C2=O)cc1` (centres undefined) as the compound, how does the “activity, positive = re-replication” value read?
Its value is inactive: 1.4%.

Which Potency does the source give for `CCN(CC)CCn1c(=N)n(CC(O)COc2cccc(C)c2)c2ccccc21` (centres undefined) here?
Its Potency is inconclusive [activator, single point].

With `CCC(=O)N1CCc2cc(S(=O)(=O)NCCCN(CC)Cc3ccccc3)ccc21` as the compound, how does the Potency read?
Its Potency is inconclusive [activator, single point].

With `COc1ccc(-c2oc3ccccc3c2C#Cc2cncn2C)cc1` as the compound, how does the Potency read?
The Potency was active: 18.4 µM.

With `COc1cc(NC(=O)c2cc(-c3cccc(O)c3)on2)cc(OC)c1OC` as the compound, how does the “activity, positive = re-replication” value read?
Its value is inactive: 12.8%.

With `O=C(Cn1cnc2cc([N+](=O)[O-])ccc2c1=O)Nc1cccc(S(=O)(=O)N2CCCCC2)c1` as the compound, how does the Potency read?
Its Potency is inconclusive [activator, single point].

For `c1ccc2nc3c(ccc4ccccc43)cc2c1`, which Potency is on record?
The Potency was inconclusive [activator, partial curve, poor fit].
